{
  "source": "paper PMC4336329",
  "about": "(PLoS ONE, 2015)",
  "note": "The whole screen tested about 310,000 compounds, of which about 2,200 (0.71%) showed an effect of 50% or more. The effect is printed as a negative number. This is one part of the list.",
  "data": [
    {"target": "human ether-à-go-go-related gene (hERG) potassium channel (human, UniProt Q12809)", "sequence (Q12809 whole entry, looked up)": "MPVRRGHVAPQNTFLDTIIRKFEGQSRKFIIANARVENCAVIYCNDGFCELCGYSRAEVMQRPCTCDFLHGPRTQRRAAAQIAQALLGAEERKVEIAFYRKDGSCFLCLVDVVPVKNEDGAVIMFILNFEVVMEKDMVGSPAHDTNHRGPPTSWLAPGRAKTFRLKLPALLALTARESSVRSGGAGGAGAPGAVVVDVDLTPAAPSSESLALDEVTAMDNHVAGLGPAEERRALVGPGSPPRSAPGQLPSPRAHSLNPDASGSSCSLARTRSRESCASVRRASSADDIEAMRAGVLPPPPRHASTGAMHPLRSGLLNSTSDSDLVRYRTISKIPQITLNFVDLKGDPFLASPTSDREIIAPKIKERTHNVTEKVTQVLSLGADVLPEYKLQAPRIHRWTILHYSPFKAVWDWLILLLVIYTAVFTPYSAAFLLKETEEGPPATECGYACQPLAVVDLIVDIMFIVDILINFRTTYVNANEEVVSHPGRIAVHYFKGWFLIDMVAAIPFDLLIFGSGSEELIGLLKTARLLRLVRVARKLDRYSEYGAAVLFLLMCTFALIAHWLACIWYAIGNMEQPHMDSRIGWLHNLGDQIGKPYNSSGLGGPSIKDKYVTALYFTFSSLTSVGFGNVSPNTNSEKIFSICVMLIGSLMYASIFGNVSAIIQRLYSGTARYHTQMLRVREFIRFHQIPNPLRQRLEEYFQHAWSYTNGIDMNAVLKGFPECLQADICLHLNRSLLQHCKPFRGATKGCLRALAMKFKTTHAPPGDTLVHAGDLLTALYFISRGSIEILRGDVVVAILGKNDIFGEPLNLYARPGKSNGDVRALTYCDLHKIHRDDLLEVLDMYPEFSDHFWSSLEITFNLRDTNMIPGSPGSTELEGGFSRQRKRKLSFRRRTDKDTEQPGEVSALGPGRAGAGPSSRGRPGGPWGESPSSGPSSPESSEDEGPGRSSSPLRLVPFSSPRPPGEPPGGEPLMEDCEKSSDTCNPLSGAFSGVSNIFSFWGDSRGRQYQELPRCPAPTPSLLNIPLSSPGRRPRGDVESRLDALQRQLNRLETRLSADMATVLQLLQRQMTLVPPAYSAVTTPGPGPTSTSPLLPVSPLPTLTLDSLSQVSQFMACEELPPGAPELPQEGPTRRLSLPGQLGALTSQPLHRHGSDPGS", "assay": "primary screen, population patch clamp on CHO cells stably expressing hERG", "units": {"hERG current change (%, negative = inhibition) at 1uM": "%"}, "values": [
      {"smiles": "CCc1ccc(NC(=O)Nc2cnccn2)cc1", "hERG current change (%, negative = inhibition) at 1uM": 0.477},
      {"smiles": "CCN(CC)S(=O)(=O)c1csc(C(=O)NCc2ccccc2)c1", "hERG current change (%, negative = inhibition) at 1uM": 5.28},
      {"smiles": "CCOC(=O)c1nn(-c2ccc(Cl)cc2)c2nnc(Cc3ccc(C)cc3)c(=O)n12", "hERG current change (%, negative = inhibition) at 1uM": 9.03},
      {"smiles": "CCc1nnc(NC(=O)CCC(=O)Nc2ccc(C)cc2)s1", "hERG current change (%, negative = inhibition) at 1uM": -3.72},
      {"smiles": "CCOc1ccc(-c2cc(N3C(=O)Nc4ccccc4N3O)n[nH]2)cc1", "hERG current change (%, negative = inhibition) at 1uM": 17.4},
      {"smiles": "O=C(CNCCO)Nc1ccc(F)c(Cl)c1", "hERG current change (%, negative = inhibition) at 1uM": 9.62},
      {"smiles": "CCCCOc1ccc(N2C(N)=NC(N)=NC23CCCCC3)cc1.Cl", "hERG current change (%, negative = inhibition) at 1uM": 7.04},
      {"smiles": "CCc1nnc(NC(=O)CCC(=O)NCc2ccccc2OC)s1", "hERG current change (%, negative = inhibition) at 1uM": 5.67},
      {"smiles": "COc1ccc(NC(=O)CN2CCN(S(=O)(=O)N(C)C)CC2)cc1", "hERG current change (%, negative = inhibition) at 1uM": 13.9},
      {"smiles": "CCCCCC1CC(CC#CCN2CCOCC2)C(=O)O1.O=C(O)C(=O)O", "note": "(stereo not shown)", "hERG current change (%, negative = inhibition) at 1uM": -5.51},
      {"smiles": "COc1ccc(/C=C/C(=O)OCC(=O)Nc2cc(S(=O)(=O)N(C)C)ccc2Cl)cc1", "hERG current change (%, negative = inhibition) at 1uM": 13.3},
      {"smiles": "CC(C)C(NS(=O)(=O)c1ccc(Br)s1)C(=O)O", "note": "(stereo not shown)", "hERG current change (%, negative = inhibition) at 1uM": 8.33},
      {"smiles": "Cc1ccc(C)c(NC(=O)CN(C)C(=O)c2ccccc2OCc2ccccc2Cl)c1", "hERG current change (%, negative = inhibition) at 1uM": 12},
      {"smiles": "O=C(O)c1cn(-c2ccc(F)cc2)c(=O)c2ccccc12", "hERG current change (%, negative = inhibition) at 1uM": 13},
      {"smiles": "COc1ccc(CN(C)CC(=O)NC(C)c2ccccc2)cc1OC", "note": "(stereo not shown)", "hERG current change (%, negative = inhibition) at 1uM": 4.62},
      {"smiles": "Cc1ccn2cc(-c3cccc(NC(=O)c4ccccc4)c3)nc2c1", "hERG current change (%, negative = inhibition) at 1uM": 11.2},
      {"smiles": "COc1ccc(/C=N/NC(=O)c2cccc(Br)c2)cc1COc1ccccn1", "hERG current change (%, negative = inhibition) at 1uM": 10.2},
      {"smiles": "O=C1C=C(NCCNc2c(F)c(F)c(CO)c(F)c2F)CCC1", "hERG current change (%, negative = inhibition) at 1uM": 7.93},
      {"smiles": "COc1ccc(C(=O)Nc2ccc(NC(=O)c3cccs3)cc2)cc1Cl", "hERG current change (%, negative = inhibition) at 1uM": 20.6},
      {"smiles": "CC1=C(C(=O)OC(C)C)C(c2ccc(C)o2)C(C(=O)OC(C)C)=C(C)N1", "hERG current change (%, negative = inhibition) at 1uM": 7.14},
      {"smiles": "CCOc1ccccc1N(CC(=O)NC1CCCCC1)C(=O)CCCC(=O)Nc1ccccn1", "hERG current change (%, negative = inhibition) at 1uM": 4.02},
      {"smiles": "Cc1cc(C(=O)CSc2nnc(-c3ccc(Cl)cc3)n2C)c(C)n1CC1CCCO1", "note": "(stereo not shown)", "hERG current change (%, negative = inhibition) at 1uM": 12.2},
      {"smiles": "COc1ccc(/C(N)=N/OC(=O)c2ccco2)cc1OC", "hERG current change (%, negative = inhibition) at 1uM": 13.3},
      {"smiles": "CC(OC(=O)c1ccc(-c2ccc(O)cc2)cc1)C(=O)NC1CCCCC1C", "note": "(stereo not shown)", "hERG current change (%, negative = inhibition) at 1uM": 10.2},
      {"smiles": "CSc1ccc(CN(C)C(=O)CSCC(=O)Nc2cc(C)on2)cc1", "hERG current change (%, negative = inhibition) at 1uM": -5.1}
    ]}
  ]
}
